In all, about 48,000 compounds went through this assay and about 450 (0.94%) were called active. Another 19% or so got no clear call; they are omitted. Calls follow the shape of the dose curve; as a rule, active = well fitted inhibition curve with a large enough effect; inconclusive = small, poorly fitted or top-dose-only effect; inactive = no such curve, though single readings can be large or run the other way. Some of the results follow.
Experiment: Primary qHTS for Identification of Small Molecule Inhibitors of Huntingtin Promoter Activity; also: nearly all actives have a fitted effect of over 50% in size
Conditions: HEK293 HTT promoter firefly luciferase reporter (activity 0% = vehicle and -100% = no light), 24 h; series mostly up to 57.5 µM; activity change, negative = inhibition: at the top concentration
In short: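 Luminescence was read after Dual-Glo reagent and a 10 min room-temperature incubation. Values were normalized to vehicle (0% activity) and zero RLU (-100% activity). Reporter HEK293 cells had been exposed to compounds (up to 57.5 uM final) for 24 h.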
In the case of `COc1cc(NC(=O)Cn2c(=O)n(CC(=O)NCCc3ccc(OC)c(OC)c3)c(=O)c3sccc32)cc(OC)c1`, the “activity change, negative = inhibition” value is reported as inactive: -6.6%.
For `CC(=O)Nc1ccc(S(=O)(=O)NCC2CCC(C(=O)NCc3ccccc3Cl)CC2)cc1` (stereo not given), the “activity change, negative = inhibition” value was inactive: -13%.
For `CSc1ccc(CNC(=O)Cc2csc3ccccc23)cc1`, the “activity change, negative = inhibition” value was inactive: 2.52%.
For `CC(=O)NCCNc1nc2c(-c3cccc(C)c3)nnn2c2ccc(Cl)cc12`, the “activity change, negative = inhibition” value was inactive: 2.76%.
In the case of `COc1cccc(Nc2sc(C(=O)c3ccc4c(c3)OCO4)c(N)c2S(=O)(=O)c2ccccc2)c1`, the “activity change, negative = inhibition” value is reported as inactive: -28.2%.
In the case of `COc1ccc(N2CC(NC(=O)Cc3cccs3)CC2=O)cc1` (stereo not given), the “activity change, negative = inhibition” value is reported as inactive: -1.19%.
In the case of `CCn1c(C)c(C)c2cc(C(=O)NCc3ccc(N(C)C)cc3)ccc21`, the “activity change, negative = inhibition” value is reported as inactive: -7.2%.
In the case of `COc1ccc(CNC(=O)CN(c2cc(C(F)(F)F)ccc2Cl)S(C)(=O)=O)cc1`, the “activity change, negative = inhibition” value is reported as inactive: -11%.
With `O=C1[C@H](CC[C@H](O)c2ccc(F)cc2)[C@@H](c2ccc(O)cc2)N1c1ccc(F)cc1` the “activity change, negative = inhibition” value was inactive: -11.3%.
In the case of `Cc1ccc(C(=O)c2oc3ccccc3c2NC(=O)c2cc(-c3ccc(Cl)cc3)on2)cc1`, the “activity change, negative = inhibition” value is reported as inactive: -13.1%.
For `COc1ccc(Cl)cc1NC(=O)Cn1ncc2c3ccccc3n(Cc3ccccc3)c2c1=O`, the “activity change, negative = inhibition” value was inactive: -4.66%.
In the case of `Cc1ccc(OCCCCn2cnc3ccccc32)cc1`, the “activity change, negative = inhibition” value is reported as inactive: -13.1%.
For `CCN(CC)S(=O)(=O)c1ccc2c(c1)nc(CN(C)C(=O)Nc1ccc(F)cc1)n2C`, the “activity change, negative = inhibition” value was inactive: 7.19%.
For `COc1cc(Cl)c(C)cc1NC(=O)CCc1c(C)nc2c3cccnc3nn2c1C`, the “activity change, negative = inhibition” value was inactive: 0.172%.
With `COc1ccc(CNC(=O)CSc2n[nH]c(-c3ccc(F)cc3)n2)cc1` the “activity change, negative = inhibition” value was inactive: 3.62%.
For `CS(=O)(=O)c1ccccc1-c1nnc(NC(=O)c2ccc3c(c2)OCCO3)o1`, the “activity change, negative = inhibition” value was inactive: -9.87%.
For `Cc1ccc(C)c(CN2C(=O)c3ccccc3S(=O)(=O)c3ccc(C(=O)Nc4cc(F)ccc4F)cc32)c1`, the “activity change, negative = inhibition” value was inactive: -19.7%.
For `COc1ccc(NC(=O)c2nnn(CC(=O)Nc3c(C)cc(C)cc3C)c2N)cc1OC`, the “activity change, negative = inhibition” value was inactive: -5.71%.
For `COc1ccc(CNC(=O)CN(c2ccc(C)cc2)S(=O)(=O)c2c(C)noc2C)cc1`, the “activity change, negative = inhibition” value was inactive: -12.2%.
In the case of `COc1ccc(CNC(=O)C(CCSC)NS(=O)(=O)c2ccc3c(c2)oc(=O)n3C)cc1` (stereo not given), the “activity change, negative = inhibition” value is reported as inactive: -0.965%.
For `Cc1cc(C)cc(NC(=O)CSc2nc3c([nH]c4ccccc43)c(=O)n2-c2ccc(F)cc2)c1`, the “activity change, negative = inhibition” value was inactive: -27.8%.
In the case of `CNC(=O)C(=O)NCC(c1ccc2c(c1)OCO2)N1CCOCC1` (stereo not given), the “activity change, negative = inhibition” value is reported as inactive: -14%.
With `CCOc1ccc(-c2cc(NC(=O)c3cccc(Cl)c3)c(C(=O)OC)s2)cc1` the “activity change, negative = inhibition” value was inactive: 24.8%.
In the case of `CC1=C(C(=O)Nc2ccccc2)C(c2ccc(C)cc2)n2nc(SCc3ccccc3C)nc2N1` (stereo not given), the “activity change, negative = inhibition” value is reported as inactive: 8.12%.
In the case of `CCCOc1ccc(C(=O)Nc2nonc2-c2ccc(OCC)cc2)cc1`, the “activity change, negative = inhibition” value is reported as inactive: -2.57%.
In the case of `O=C(c1ccc(F)cc1F)N1CCC(c2nc(-c3ccc(S(=O)(=O)N4CCCC4)cc3)no2)CC1`, the “activity change, negative = inhibition” value is reported as inactive: -2.38%.
In the case of `CCOC(=O)c1ccc(NC(=O)c2cn(-c3ccccc3)nc2-c2ccc(C)cc2)cc1`, the “activity change, negative = inhibition” value is reported as inactive: 0.463%.
In the case of `CCCc1ccc(S(=O)(=O)N2CCC(c3nnnn3-c3ccc(OC)cc3)CC2)cc1`, the “activity change, negative = inhibition” value is reported as inactive: -7.22%.
In the case of `Cc1oc2cc3oc(=O)c(CC(=O)N4CCCCC4)c(C)c3cc2c1C`, the “activity change, negative = inhibition” value is reported as inactive: -4.66%.
In the case of `N#CC1=C2SCN(C3CCCCC3)CN2C(=O)CC1c1ccc(Br)cc1` (stereo not given), the “activity change, negative = inhibition” value is reported as inactive: -22%.
In the case of `CCOc1cc(C#N)c(NC(=O)c2ccc(OC)c(S(=O)(=O)N3CCN(c4ccccc4)CC3)c2)cc1OCC`, the “activity change, negative = inhibition” value is reported as inactive: 12.1%.
In the case of `CN1CCOC(c2ccccc2)c2ccccc2C1` (stereo not given), the “activity change, negative = inhibition” value is reported as inactive: 0.834%.
With `COc1ccc(CNC(=O)Cn2c(=O)c3cccn3c3ccccc32)cc1` the “activity change, negative = inhibition” value was inactive: -9.16%.
With `CCc1nnc2c(N3CCN(c4cccc(C(F)(F)F)c4)CC3)nc3ccccc3n12` the “activity change, negative = inhibition” value was inactive: 0.21%.
In the case of `COc1ccc(N(CC(=O)N2CCc3ccccc3C2)S(=O)(=O)c2ccc(C)cc2)cc1Cl`, the “activity change, negative = inhibition” value is reported as inactive: -13.1%.
For `O=C(Cn1c(=O)n(Cc2ccco2)c(=O)c2oc3ccccc3c21)Nc1ccc(F)c(Cl)c1`, the “activity change, negative = inhibition” value was inactive: -17.9%.
In the case of `CN1CCN(CCCNC(=O)c2cnn(-c3ccc(F)cc3)c2-n2cccc2)CC1`, the “activity change, negative = inhibition” value is reported as inactive: -23.6%.
With `CNc1ccc(-c2nc(-c3ccccc3C)no2)cc1[N+](=O)[O-]` the “activity change, negative = inhibition” value was inactive: 49.4%.
In the case of `COc1ccc(C2=C(C(C)=O)Sc3nnc(-c4ccc(Cl)cc4)n3N2C(C)=O)cc1OC`, the “activity change, negative = inhibition” value is reported as inactive: -16.5%.
In the case of `CCCn1c2ccccc2c2cnn(CC(=O)NCCCN3CCCCC3)c(=O)c21`, the “activity change, negative = inhibition” value is reported as inactive: -2.03%.
In the case of `CCOc1ccc(NC(=O)c2sc3nc4c(c(-c5ccccc5)c3c2N)C(=O)CC(C)(C)C4)cc1`, the “activity change, negative = inhibition” value is reported as inactive: -20.3%.
In the case of `Cc1ccc(S(=O)(=O)c2cnc(SCC(=O)Nc3ccc4c(c3)OCCO4)[nH]c2=O)cc1Cl`, the “activity change, negative = inhibition” value is reported as inactive: -18%.
In the case of `CCOc1cc(C2C(C(=O)OC)=C(C)NC3=C2C(=O)c2ccccc23)ccc1OC` (stereo not given), the “activity change, negative = inhibition” value is reported as inactive: -17%.
In the case of `CCc1cc(-c2n[nH]c(C)c2-c2ccc3c(c2)OCCO3)c(O)cc1O`, the “activity change, negative = inhibition” value is reported as inactive: -27.6%.
With `Cc1ccccc1-c1ccnc2[nH]n(-c3ccccc3)c(=O)c12` the “activity change, negative = inhibition” value was inactive: -30.2%.
For `O=S(=O)(NCC(c1ccco1)N1CCOCC1)c1ccc(Br)cc1` (stereo not given), the “activity change, negative = inhibition” value was inactive: -17.2%.
With `COc1ccc(OC)c(CN2CCN(S(=O)(=O)c3ccccc3)CC2)c1` the “activity change, negative = inhibition” value was inactive: -19.4%.
For `Cc1ccc2oc(C(=O)N(Cc3ccc(N(C)C)cc3)CC3CCCO3)c(C)c2c1` (stereo not given), the “activity change, negative = inhibition” value was inactive: -15.9%.
With `CCOC(=O)c1c(NC(=O)CSc2cn(CCNC(=O)c3cccc(C(F)(F)F)c3)c3ccccc23)sc2c1CCC2` the “activity change, negative = inhibition” value was inactive: -5.87%.
With `CC(NC(=O)C1CCN(S(=O)(=O)c2ccc(F)cc2)CC1)c1ccccc1` (stereo not given) the “activity change, negative = inhibition” value was inactive: -14.8%.
In the case of `CN1CCC(=C2c3ccccc3CCc3sccc32)CC1`, the activity change, negative = inhibition is reported as “inactive”.
With `COc1ccc(-c2cc(C(=O)Oc3ccc(C)cc3)c3ccccc3n2)cc1` the “activity change, negative = inhibition” value was inactive: 22%.
With `CC(C)c1ccc(NC(=O)CSC2=Nc3ccccc3C3=NC(CC(=O)NCc4cccs4)C(=O)N23)cc1` (stereo not given) the “activity change, negative = inhibition” value was inactive: -16%.
For `COc1cc(NC(=O)CSc2ncc3c(n2)-c2ccc(Cl)cc2N(Cc2ccccc2)S3(=O)=O)cc(OC)c1`, the “activity change, negative = inhibition” value was inactive: -13.8%.
In the case of `O=C(Cn1ncc2c3ccccc3n(Cc3ccc(Cl)cc3)c2c1=O)NCCC1=CCCCC1`, the “activity change, negative = inhibition” value is reported as inactive: -10.7%.
In the case of `CN(C)CCNC(=O)C1CCN(c2ncnc3c2nc2n3CCCCC2)CC1`, the “activity change, negative = inhibition” value is reported as inactive: -15.3%.
With `COc1ccc(CNC(=O)c2cc3cc4ccc(C)cc4nc3o2)cc1` the “activity change, negative = inhibition” value was inactive: 4.4%.
With `O=C(Cc1ccccc1)Nc1c(C(=O)c2ccccc2)oc2ccccc12` the “activity change, negative = inhibition” value was inactive: 6.25%.
For `CCc1ccc(C(=O)COC(=O)C(Cc2c[nH]c3ccccc23)NC(=O)c2ccc(CC)cc2)cc1` (stereo not given), the “activity change, negative = inhibition” value was inactive: -10.4%.
In the case of `Cc1ccc(NC(=O)CSc2nnc(-c3nnn(-c4ccc(F)cc4)c3C)o2)cc1Br`, the “activity change, negative = inhibition” value is reported as inactive: -2.99%.

Source: PubChem BioAssay AID1508623 (National Center for Advancing Translational Sciences (NCATS), 2021)
